Test results taken from the supplement of paper PMC10126150.
Sequences with one replicate were seen in a single cluster, so their values are uncertain.

Test system: ATP
Assay: switch fluorescence ratio, 500 uM ATP over buffer (Cy3 cluster intensity, sum of 5 cycles each) (fold (ratio)); higher = stronger signal-on switching upon ATP binding; sequences stand for … in TCGTCGGCAGCGTCAGATGTGTATAAGAGACAGTTTTTTTTTTTTTTTTTTTTTTTTT…TC
Conditions: aptamer strand: ATP DNA aptamer (quencher-CACCTGGGGGAGTATTGCGGAGGAAGG + anchor), 100 nM annealed; ATP concentration: 500 uM; one replicate
In short: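 Values give the fluorescence ratio for each switch-domain sequence, averaged from per-cluster ratios of summed target-cycle to summed buffer-cycle Cy3 intensity. The Cy3-labelled switching-strand clusters sat on a modified Illumina MiSeq flow-cell, were annealed to 100 nM quencher-labelled ATP aptamer, and were imaged in selection buffer, then after 15 min with 500 uM ATP at 22 °C. Five cycles ran with NaOH stripping and re-annealing between them, and clusters outside 100-1000 RFU were excluded.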
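Further: ATP exposure 15 min at 22 °C before imaging.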

Sequence | switch fluorescence ratio
CACGGTATAG | 1.19
TCTACAAATG | 0.99
CATTGGGGC | 1.03
TGGAGCAGGC | 1.12
CTCTATAGTG | 0.994
ACGGATCTCG | 0.99
GAGTTGTGTG | 1
TAATAGCCCC | 1.08
CACGTTGGAC | 1.23
TGCCGCTGCA | 1.11
CTCTATTATC | 1.05
GAGATTGTG | 0.998
TAAAGCCTAG | 1.04
TAGGCCTTCA | 1.34
AACGGTCGGC | 0.975
TTGTTCCCCG | 1.06
TGAGAGGCAG | 0.954
AAGCTGCAAC | 1.18
ATATAAATGC | 1.04
GCCACCCGCA | 1.52
AAGCTTTTAG | 0.992
AGGACTCGGT | 0.957
GGTCAAAGTT | 1
CACCCTGTCT | 1.05
GGTTAGTCTC | 1.01

Sequence | switch fluorescence ratio
ATGTAGGGTA | 1.01
ACTAAGGATA | 0.962
ATGGAGTTTT | 1.04
AGTTACGGGG | 1.01
GACTGCGAGA | 1.1
ATGTTCGTGC | 1.02
ATCCTAAAAT | 1.01
TATCCTAGG | 0.996
ACTCAGGTTC | 1.09
TGACTTGCTG | 0.995
ATCAGAGCGT | 0.971
ATATGGCCGG | 0.964
GCTTTCGGTA | 0.998
CAAAGGCAGA | 1.03
TAGTTAGATA | 0.989
GCCGGGGTAC | 1.16
GGTTGCTACG | 0.97
TCTATACTGT | 1.01
GAATAAGAC | 1.02
GCCATTTA | 1.04
GCTGGGGTCA | 0.989
GTGCTAGGAC | 1.04
CGGAGCACAG | 3.57
GTTAAGAAAT | 0.984
ACTTTGTGGT | 0.982

Sequence | switch fluorescence ratio
TACACTC | 1.05
AAATCATCTG | 0.996
GGGAGAGA | 1.03
AGTTGTTTAA | 1.23
GCGCACTTTC | 1.2
GCGACGCATT | 4.3
CATGAACGAT | 0.972
GCTACGTATA | 1.65
CATTTACTAG | 1.02
TTTCTTTATA | 1.03
GCCTTGTAGG | 1.03
CCCTCTTAAT | 0.977
CCAGATTTTT | 0.995
GATGCCCCGA | 0.986
CGCAACTCTT | 2.05
GTTCACAACC | 0.971
TTGTATGCTA | 1.04
AAAGTGCTCG | 0.975
TCATTGCG | 1
TACGGTCGCA | 1.07
TATTGCGATG | 1.03
ACTTACGTT | 1.44
ATTAATGTTC | 1.02
CGGGCGCTTT | 1.03
GTCGAACATC | 0.963

Sequence | switch fluorescence ratio
TAGGGTTGAC | 1.04
AATGGGTTAG | 0.964
TTACTCCACC | 1.18
GGCTGCCTAA | 0.95
ACGCGAGCAT | 1
ACGAAGGGGA | 1.03
TCGGGCACAT | 1.02
CACCTTACAT | 1.24
CTATCACGAT | 1.01
AAGGAGCGAT | 1.11
TCTTGTTATG | 0.999
GGCTTACCCT | 1.03
GAGGATGAAA | 0.966
AGGATCAAGC | 1
TCATGCCGAA | 0.978
TATGAGCGTC | 1.02
ATGCGGATTG | 1.01
GGCACGATCT | 0.93
TGAATAGGTT | 1
ATCGGGTGGA | 0.965
TGCCGGGAAG | 1.02
AACCCCTGTG | 1.31
TCGGTCTCAT | 0.987
CAGGCGGTC | 1.01
TTGATACCTC | 1

Sequence | switch fluorescence ratio
ATGATAGACC | 1.05
ATGATTATAC | 1.03
GCGCGCTGGC | 1.02
TTCCGCAGAT | 4.53
GAGTACGAGG | 1.01
AAAGTTTACG | 0.978
ACGTCTAAGT | 1.05
CAAATTAATT | 1.01
CGCGTCGACT | 0.98
CCGGAAGTGG | 1.14
GGCGACGCCC | 1.07
TGGCATAAGG | 1.02
GATGGGCAT | 1.04
ACTCTTAT | 1.09
CATAACTTCG | 1.04
CATAAGAGCT | 1.01
TGGGGGGGC | 1.01
TGTTCTTAAT | 1
GTAACTTGCT | 1.01
CGTCTTTGCG | 0.938
AGGCTCACCA | 1.03
AGCTTTGGAG | 1.05
GATCGGGTCT | 0.981
TACTATACTC | 1.29
TACCTCGGCC | 1.16

Sequence | switch fluorescence ratio
GCGGTGTCTG | 0.969
GCGCGAATAT | 1.16
CAGACGTGCC | 1.03
CTACGACGGC | 1.34
AAAGTATGGG | 1.02
AATGGTATAG | 0.982
GGTTTACCAT | 1.02
AAATATTGAC | 1.04
CGGGGTGATA | 0.988
TAAAGGTGG | 0.99
GTAGGATATC | 1.01
TCTGCGAAAC | 2.03
TCCAATATGT | 0.999
AGAGTTCTT | 1.03
AGGTGAGCTG | 1.03
TGCTAGGTTT | 0.982
GCCAGGATTC | 1.04
GCCTCATGTA | 1.02
AGACTGAATA | 1.03
TGCTTTACCC | 1.04
ATCGGATCAT | 0.938
CGTAGAAGAT | 0.961
CTATACTCA | 1.11
ACATTTGCTG | 1
TTTCTTAAAC | 0.98

Sequence | switch fluorescence ratio
ACCTCAACTA | 1.25
TGCATATGCT | 0.979
CTTCAGGGGC | 1.27
GTGCACCTCC | 1.14
TGCAGTAGGG | 0.97
GAAGCAAAAG | 2.19
AGCTAACAGT | 1.02
TGCGGATAAG | 1.01
GAGAAGGCAG | 0.987
CACATTTCCG | 1.11
CTATTAGATT | 0.983
GAATATCAGA | 0.97
CAGTGACTGG | 0.989
TAAATCTAGC | 1.04
TAAATCGAGC | 0.943
CGTGGCGTGC | 0.951
AGTTCACGGG | 1.02
GCACGGCCAT | 1.08
ACATAAGTAA | 1.03
GATCATGGTT | 1.04
AATGGGAGGT | 1.03
TGTTGGGGC | 1
GCGCAGGGGC | 1.23
CGCAGTTTTG | 0.957
GTCTCAATCA | 1.03

Sequence | switch fluorescence ratio
GCCTAATGGA | 1.01
CATTTCCTAG | 0.975
ACAGTTCAGT | 1.01
AAATCCAGGG | 1.15
TGCGACGTAG | 0.946
TGATATTTGA | 1.02
CTAAGTCGTA | 0.991
GCCAGACAGT | 0.998
ACGTTACTTT | 1.4
AGCCGTTAAT | 0.964
TTAGTATCAA | 0.963
AAAAAAATGA | 1.01
GATCGCGTAG | 1.06
ATGAGTTTAT | 0.969
TATTCAAGAG | 1.01
AAAGGTATAC | 2.48
GAGTGGTAAT | 1.01
CACATGATAT | 1.02
CGATGGG | 1.01
GCTATCTTGA | 1.02
CAAAGTTGTG | 0.981
